Results as given in PubChem BioAssay (NCI).
Values joined by “and” are separate entries in the source; they are usually repeats but may differ in a detail not shown here. Equal values may be shown once.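 The compound was tested at five concentrations on cells cultured in 96-well plates, with a 48-hour exposure period. GI50 = concentration required for 50% inhibition of growth. TGI marks complete inhibition of growth.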

These compounds were tested on NCI-H322M lung (assay: NCI tumour cell line growth inhibition, 48 h).
In the case of `COc1ccc2c(c1OC)CO[C@@H]2[C@H]1c2c(cc3c(c2OC)OCO3)CCN1S(=O)(=O)c1cn(C)cn1`, the GI50 is reported as 5.46 µM and the TGI is reported as greater than 100 µM. Compound `COC(=O)c1ccc(CN2C(=O)C(Cl)=C(Nc3cccc(Cl)c3C)C2=O)cc1` has a GI50 of 26.4 µM and a TGI greater than 100 µM. Work on `CCOC(=O)C(Cc1c[nH]c2cc([N+](=O)[O-])ccc12)NS(=O)(=O)c1ccc2ccccc2c1` (centres undefined) yielded a TGI of 50.7 µM. `O=C(/C=C(\S/C=C(/c1ccccc1)N1CCn2c(C(=O)c3ccccc3)c(C(=O)c3ccccc3)c(C(=O)c3ccccc3)c21)C(=O)c1ccccc1)c1ccccc1` showed a TGI greater than 10 µM. For `Cc1ccccc1NC(=O)c1sc2nc(C)c(C(=O)/C=C/c3ccccc3)cc2c1N`, the GI50 was 1.87 µM and the TGI was 7.42 µM. Compound `O=[N+]([O-])C(/C=N/Nc1ccccc1)/C=N/Nc1ccccc1` has a TGI greater than 100 µM. `COc1ccc(/C(COc2ccc3oc(-c4ccccc4)cc(=O)c3c2)=N\O)cc1` gave a GI50 of 0.189 µM and a TGI of 17.4 µM. In the case of `CNC(=O)c1cc(Oc2ccc(NC(=O)Nc3ccc(Cl)c(C(F)(F)F)c3)c(F)c2)ccn1`, the GI50 is reported as 3.55 µM and 3.16 µM and the TGI is reported as 12.4 µM and > 10 µM. `COc1cc(/C=N/Nc2ncnc3c2cnn3-c2ccccc2)ccc1O` showed a GI50 greater than 18 µM and a TGI greater than 25 µM. In the case of `CCOC(=O)Oc1cc2c(c(OC)c1OC)-c1ccc(OC)c(=O)cc1C(NC(C)=O)CC2` (centres undefined), the TGI is reported as 24 µM. For `COc1c(-c2nc3nc(N4CCN(C)CC4)ccc3[nH]2)cc(OC)c2c1nc(COC(C)=O)n2C`, the TGI was greater than 100 µM. With `CN(CCNC(=O)c1cn(C)c2c1ccc1cc(Cl)c(Cl)cc12)CCNC(=O)c1cn(C)c2c1ccc1cc(Cl)c(Cl)cc12` the TGI was 3.7 µM. `N=c1c2c(=S)n(-c3ccccc3)c(=S)n(-c3ccccc3)c2nc(SCCN2CCCC2)n1-c1ccccc1` was tested, and the TGI was 24 µM. For `CCCCCCCCCCCC[C@@H](O)[C@H]1CCC([C@H](O)CCCCC(=O)CCCCCCCC2=C[C@H](C)OC2=O)O1` (some centres undefined), the TGI was greater than 50 µM. In the case of `Cc1sc2c(c1C)/C(=N\O)c1cccn1-2`, the TGI is reported as greater than 100 µM. `O=C(Nc1cccc([N+](=O)[O-])c1)c1n[nH]n(-c2cccc([N+](=O)[O-])c2)c1=O` showed a TGI greater than 100 µM. With `Cc1cc2c(C)n(Cc3ccccc3Cl)nc2c(C(=O)O)c1C` the TGI was greater than 100 µM. `COC(=O)c1c(O)ccc2[nH]c3c(O)c4ccccc4cc3c12` gave a TGI of 57.5 µM. Work on `CCN(CC)CCN1C(=O)c2c(c3c4ccccc4[nH]c3c3ccc4ccccc4c23)C1=O` yielded a GI50 of 1.44 µM and a TGI of 2.79 µM. `Nc1ccc(C(=O)N/C(=C\c2cccc([N+](=O)[O-])c2)c2nc3[nH]c(=S)[nH]c(=O)c3[nH]2)cc1` was tested, and the TGI was greater than 100 µM. `CCOC(=O)Nc1ccc2c(c1)c(CCCCCCc1nc3ccccc3c3ccc(NC(=O)OCC)cc13)nc1ccccc12` showed a TGI greater than 100 µM. For `Cc1ccc(C2=C(C#N)C(N)OC3=C2COc2ccccc23)cc1` (centres undefined), the TGI was 28.5 µM. `Nc1nc(Cl)cc(NC2(CO)CCC2)n1` was tested, and the TGI was greater than 100 µM. `O=C1C=CC=C/C1=C1/SC(c2ccccc2)=C(O)N1c1ccccc1` showed a TGI greater than 100 µM. Work on `CC1=C2[C@@H](CC1)[C@]1(C)O[C@@](C(C)C)(C[C@H]1OC(=O)CO)[C@H]2OC(=O)C1CC1c1ccccc1` (some centres undefined) yielded a GI50 of 17.7 µM and a TGI of 34.9 µM. In the case of `NNC(=S)NCCNC(=S)NN`, the TGI is reported as greater than 100 µM.
